Screen size: about 310,000 compounds; about 2,200 (0.71%) showed an effect of 50% or more. Effects have a minus sign here. Some of the results follow.
Target: human ether-à-go-go-related gene (hERG) potassium channel (human, UniProt Q12809)
Assay: primary screen, population patch clamp on CHO cells stably expressing hERG

Sequence of human ether-à-go-go-related gene (hERG) potassium channel (Q12809 whole entry, looked up): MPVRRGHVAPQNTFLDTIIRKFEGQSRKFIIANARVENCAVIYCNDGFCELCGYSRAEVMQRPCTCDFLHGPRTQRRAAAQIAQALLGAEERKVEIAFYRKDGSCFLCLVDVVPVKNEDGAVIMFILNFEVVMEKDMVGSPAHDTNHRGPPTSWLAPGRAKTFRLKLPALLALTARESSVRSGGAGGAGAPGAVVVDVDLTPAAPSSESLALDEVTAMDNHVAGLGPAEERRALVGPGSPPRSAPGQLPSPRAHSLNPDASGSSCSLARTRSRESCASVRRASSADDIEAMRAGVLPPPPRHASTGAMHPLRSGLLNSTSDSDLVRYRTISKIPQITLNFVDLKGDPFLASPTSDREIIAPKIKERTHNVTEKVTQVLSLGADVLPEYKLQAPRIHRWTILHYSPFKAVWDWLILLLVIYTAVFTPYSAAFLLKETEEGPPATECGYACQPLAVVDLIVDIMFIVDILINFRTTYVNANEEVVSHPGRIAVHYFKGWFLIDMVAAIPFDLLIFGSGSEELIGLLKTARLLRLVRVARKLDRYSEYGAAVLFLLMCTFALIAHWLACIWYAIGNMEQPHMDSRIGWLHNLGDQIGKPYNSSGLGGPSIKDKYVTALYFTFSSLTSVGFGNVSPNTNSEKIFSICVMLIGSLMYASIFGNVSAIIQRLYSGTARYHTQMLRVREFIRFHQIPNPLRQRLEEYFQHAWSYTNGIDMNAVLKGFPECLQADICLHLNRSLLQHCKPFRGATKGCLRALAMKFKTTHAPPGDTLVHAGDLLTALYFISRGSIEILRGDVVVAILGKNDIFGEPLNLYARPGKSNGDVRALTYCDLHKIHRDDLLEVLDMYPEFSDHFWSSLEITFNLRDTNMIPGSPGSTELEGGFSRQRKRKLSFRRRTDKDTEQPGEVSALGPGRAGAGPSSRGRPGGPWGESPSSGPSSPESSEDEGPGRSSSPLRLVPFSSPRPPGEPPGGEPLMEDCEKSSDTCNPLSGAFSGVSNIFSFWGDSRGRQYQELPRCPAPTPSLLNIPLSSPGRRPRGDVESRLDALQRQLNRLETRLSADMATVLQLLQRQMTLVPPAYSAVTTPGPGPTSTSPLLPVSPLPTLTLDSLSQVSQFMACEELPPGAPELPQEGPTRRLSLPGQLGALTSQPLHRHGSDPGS

Structure (SMILES)	hERG current change (%, negative = inhibition) at 1uM [%]
CC(=O)c1cc(-c2ccccc2)n(CC(=O)Nc2cc(C)cc(C)c2)c1C	18.5
O=C(O)CCCn1c(O)c(C=C2N=c3ccccc3=N2)sc1=S	13.7
O=C(c1cccnc1NCc1ccc(F)cc1)N1CCOCC1	5.16
Cl.O=C(c1ccccc1)c1coc2ccc(O)c(CN3CCOCC3)c12	-21
CCOc1ccc(CNC(=O)CCS(=O)(=O)Cc2cccc(Cl)c2)cc1OC	1.14
O=C1NC(O)(c2ccccc2)Oc2ccccc21 (stereo not drawn)	16.3
COc1ccc(CCNC(=O)c2n[nH]c(=O)c3ccccc23)cc1	16.9
CNS(=O)(=O)c1ccc(NC(=O)C2CC(=O)N(c3ccc(Cl)cc3)C2)cc1 (stereo not drawn)	8.98
CCC1(C(=O)OC)NC(c2ccccc2OC)C2C(=O)N(C)C(=O)C21 (stereo not drawn)	16
S=C(NCc1ccco1)N1CCN(Cc2ccc(Cl)cc2Cl)CC1	1.56
O=C(c1cnsn1)N1CCN(c2ccccc2)CC1	6.62
CCCC(C(=O)n1nc(C)cc1C)C(NS(=O)(=O)c1ccc(C)cc1)c1ccccc1 (stereo not drawn)	13.7
COc1ccc(CNC(=O)Nc2ccc(C)cc2)cc1	11.2
COc1ccc2[nH]c(CN3CCN(CC=C(C)C)C(CCO)C3)c(C)c2c1 (stereo not drawn)	10.7
CCOC(=O)C1CCN(Cc2ccc(OC)c(C)c2OC)CC1	10.3
Cc1ccccc1NC(=O)NC1CCS(=O)(=O)C1 (stereo not drawn)	13.3
O=C1CC(Cc2ccc(Cl)cc2)C(=O)N1c1ccccn1 (stereo not drawn)	9.22
Cc1c(NC(=O)C(=O)/C=C(\O)c2ccc(Cl)cc2)c(=O)n(-c2ccccc2)n1C	7.69
CCN(CC)P(=O)(NC(=O)c1cccn1C)N(CC)CC	1.32
CCOC(=O)c1c(C)n(C)c2ccc(O)c(S(=O)(=O)c3ccccc3)c12	-4.53
Cn1c(=O)cc(SCC(=O)Nc2ccccn2)c2ccccc21	11.4
Cc1cc2ccccn2c1C(=O)c1ccccc1F	8.39
CCOc1ccccc1NC(=O)CC1Nc2ccccc2NC1=O (stereo not drawn)	6.06

Structure (SMILES)	hERG current change (%, negative = inhibition) at 1uM [%]
c1cnc(SCCOc2cccc3ccccc23)nc1	-4.6
O=C(NCC1CCCO1)c1onc(CSc2ccc(F)cc2)c1C(=O)O (stereo not drawn)	14.1
CC(C)CC(C(=O)OCC(=O)Nc1cccc(Cl)c1)N1C(=O)C2CC=CCC2C1=O (stereo not drawn)	13.3
O=C(N/N=C/C(Cl)=C/c1ccc([N+](=O)[O-])cc1)C(=O)Nc1ccc(C(=O)O)cc1	9.4
Cc1ccc(-c2cnc3cc(C)nn3c2)cc1	12.6
CCC(CC)CN1CCN=C1Nc1ccccc1	5.25
Cc1ccc(S(=O)(=O)Nc2nc3ccccc3nc2NCc2ccc3c(c2)OCO3)cc1C	2.39
Cc1ccc(C(=O)N/C(=C\c2ccc(-c3cccc([N+](=O)[O-])c3)o2)C(=O)NCCCN(C)C)cc1	-27.5
CCOc1ccc(S(=O)(=O)NCCC(=O)NCC2(N3CCCCC3)CCCCC2)cc1	-0.565
N=C1C(c2nc3ccccc3[nH]2)=C(O)CN1C1CCCCC1	8.46
COc1ccc(S(=O)(=O)N2CCCC2CNC(=O)C(=O)NC2CC2)cc1 (stereo not drawn)	12.6
CC(=O)N1CCSc2ccc(S(=O)(=O)NCc3ccccc3)cc21	4.56
O=C(CCn1cnc2ccccc21)N/N=C/C=C/c1ccccc1	4.35
CC(=O)c1cccc(NC(=O)c2ccc3c(Cl)c4c(nc3c2)CCCC4)c1	2.68
Brc1ccccc1OCCNCc1ccccc1.O=C(O)C(=O)O	8.28
Cc1nn(C)c(C(=O)N/N=C/c2ccc(C(F)(F)F)cc2)c1[N+](=O)[O-]	11.7
O=C(NC1CCCCC1)n1c(=O)oc2cc(S(=O)(=O)N3CCCCC3)ccc21	5.37
CC(=O)N1CCN(C(=O)C(Cc2ccccc2)NC(=O)c2ccccc2)CC1 (stereo not drawn)	16.3
CCN(CC)c1ccc(NC(=O)c2ccc(Br)o2)c(C)c1	17.8
O=C(c1ccc2ccccc2c1)N1CCN(S(=O)(=O)/C=C/c2ccccc2)CC1	-3.48
CC(C)c1ccc(/C=C2\Oc3c(ccc(O)c3CN3CCN(C)CC3)C2=O)cc1	4.28
CCN(CC)S(=O)(=O)c1ccc(C(=O)NC2=NCCS2)cc1	11.3
Cc1ccc(S(=O)(=O)NC(Cc2ccccc2)C(=O)O)cc1 (stereo not drawn)	-1.77

Structure (SMILES)	hERG current change (%, negative = inhibition) at 1uM [%]
O=C(NC(=S)Nc1ccc2c(c1)OCCO2)c1ccc(F)cc1Cl	10.7
C/C(NC1CCCC1)=C(/C#N)C(N)=O	5.83
CCOCCCn1c(SC(C)C(=O)NCC2CCCO2)nc2sc(C)c(C)c2c1=O (stereo not drawn)	-0.916
CC1=C2C(CCS2(=O)=O)CC2(C1)C(=O)OC(C)(C)OC2=O (stereo not drawn)	4.93
CC(=O)N1CCN(CC(=O)Nc2cccc(S(=O)(=O)N3CCCCCC3)c2)CC1	7.58
CCOc1cc(/C=N/O)ccc1OCc1ccc([N+](=O)[O-])cc1	-6.93
O=C(Cn1cnc2c(cnn2-c2ccc(F)cc2)c1=O)NCC1CCCO1 (stereo not drawn)	2.68
COc1cc(CCC(=O)OCC(=O)Nc2c(F)cccc2F)cc(OC)c1OC	5.03
COc1ccc(N2C(=O)C3CCCN3C2c2ccccc2)cc1Cl (stereo not drawn)	7.76
C/C(=N\Nc1nc(C(C)(C)C)cs1)c1ccccc1	15.1
COc1ccc(CCNC(=O)Cn2c(=O)oc3cc(Cl)ccc32)cc1OC	10.3
Cc1ccc(C)c(-n2c(C)nc3ccccc3c2=O)c1	13.2
COc1ccc(Br)cc1/C=C/C(=O)Nc1ccc(C)cc1	8.12
COC(=O)NC1c2ccccc2Oc2ccccc21	11.4
c1ccc(C2=Nn3c(nnc3-c3ccccn3)SC2)cc1	10.4
O=C(Cn1c(=O)cnc2ccccc21)Nc1ccccc1N1CCOCC1	9.06
Cc1c(OCC(=O)C(C)(C)C)ccc2c(-c3ccccc3)cc(=O)oc12	12.4
CNC(=O)CN1C(=O)NC2(CCc3ccccc3C2)C1=O (stereo not drawn)	16.7
COc1ccc(OC)c(S(=O)(=O)NCCOC23CC4CC(CC(C4)C2)C3)c1	-4.41
Cc1c(C(=O)NCC2CCCO2)sc2nc(-c3ccccc3)cn12 (stereo not drawn)	-15.9
COc1cccc(CN=c2c([N+](=O)[O-])nn(-c3ccccc3C)n2O)c1	11.1
Cc1ccc(NC(=O)COC(=O)CN2C(=O)c3ccccc3C2=O)cc1S(=O)(=O)N(C)C	10.4
COc1ccccc1C(=O)Nc1ccc2[nH]ncc2c1	8.7

Structure (SMILES)	hERG current change (%, negative = inhibition) at 1uM [%]
COc1ccc(C(c2sc3nc(C)nn3c2O)N2CC(C)OC(C)C2)cc1OC (stereo not drawn)	6.83
COC(=O)c1ccc(NC(=O)C2C3CCC(C3)C2C(=O)O)cc1 (stereo not drawn)	3.27
CCOc1cccc(CNCc2ccncc2)c1	4.19
Cc1cc(C)n(C(=O)CNC(=O)COc2ccccc2)n1	11.4
CCn1c(-c2cc(-c3ccc(C)cc3)nc3ccccc23)n[nH]c1=S	9.45
O=C(c1ccc(CS(=O)(=O)c2c(Cl)cccc2Cl)o1)N1CCN(c2ccccn2)CC1	-4.65
COc1ccccc1N1CCN(S(=O)(=O)c2c(C)[nH]c(=O)[nH]c2=O)CC1	8.93
Cc1ccc(C)c(OCCCN2CCCC2)c1.O=C(O)C(=O)O	-20
CCOC(=O)c1oc2ccccc2c1NC(=O)Cc1cccs1	15.3
CCC(C)c1ccc(S(=O)(=O)N2CC(=O)Nc3ccccc32)cc1 (stereo not drawn)	11.8
Cn1/c(=N\NC(=O)c2ccccc2Cl)sc2ccccc21	6.15
O=C(NCc1cccnc1)NC(=O)c1ccc(Cl)cc1	15.5
CCCn1c(C(C)NC(C)=O)nc2ccccc21 (stereo not drawn)	12.3
CS(=O)(=O)N1Cc2ccccc2CC1C(=O)OCC(=O)Nc1ccc2ccccc2c1 (stereo not drawn)	7.46
COc1ccc(C2C([N+](=O)[O-])=C(C)N(C)C(=O)N2C)cc1OC (stereo not drawn)	11.7
CCc1ccc(NC(=O)CSc2nc3c(c(=O)n(C)c(=O)n3C)n2C)cc1	2.79
CCCCCOC(=O)C1[C@H]2C(=O)N(CCCOC)C[C@]23C=C[C@H]1O3 (stereo partly drawn)	2.39
O=C(CNC(=O)OCc1ccccc1)NCC(=O)Nc1ccc(Br)cc1C(=O)c1ccccc1	10.8
CC12CCC(C(=O)NC3CCCC3)(CC1=O)C2(C)C (stereo not drawn)	7.77
O=C1C2C3c4ccccc4C(c4ccccc43)C2C(=O)N1Cc1ccco1 (stereo not drawn)	4.25
Cn1c(=O)n(C)c2cc([N+](=O)[O-])c(N3CCN(S(=O)(=O)c4ccccc4)CC3)cc21	3.45
